According to ChEMBL document CHEMBL4888484, “Replenishing the malaria drug discovery pipeline: Screening and hit evaluation of the MMV Hit Generation Library 1 (HGL1) against asexual blood stage Plasmodium falciparum ,using a nano luciferase reporter read-out” (2022):
About 540 (0.36%) of roughly 150,000 compounds showed an effect of 50% or more. Some of the results follow.

These compounds were tested on Plasmodium falciparum (assay: Primary screen in NF54 nanoGlo assay, in single point, at 2uM, 72h; a lower Z score goes with more inhibition). Conditions: timepoint 72 hour.
Type: functional, Erythrocyte

Compound | % Inhibition | Z score
Cc1sc2ccccc2c1CN1CC[C@H](N2CCN(C)CC2)C1 | 1% | -0.18
Cc1nscc1-c1nc(-c2ccc(N3CCCN(C)CC3)nc2)no1 | -8% | 1.57
Cc1cccn(Cc2nnnn2C2CC2)c1=O | 40% | -5.37
CN(C)c1ccc([C@@H]2C=C(c3ccc(F)cc3)Nc3nnnn32)cc1 | 1% | -0.11
COc1cc(N(C)C)c(OC)cc1/C=C1\C=Cc2ccccc21 | -18% | 2.11
COc1ncnc(N(C)C)c1NC(=O)c1ncoc1-c1cccs1 | -8% | 0.78
Cc1ncoc1C(=O)N1CCC(Cc2ccc(C(=O)N3CCOCC3)cc2)CC1 | -5% | 0.82
CCC[C@H]1CN(CC#N)CCN1CC#N | -9% | 1.61
CNC(=O)Cn1nc(C(=O)N[C@H]2CC[C@@H](C(=O)NC3CCC3)C2)cc1C | -6% | 0.9
COc1ccc([C@H]2CC(=O)Nc3c2c(=O)[nH]n3C2CCCCCCC2)cc1O | 3% | -0.65
COc1cc(=O)n2c(c1C(=O)N(C)Cc1nonc1C)CCN(C(=O)CCC1CCCCC1)CC2 | 2% | -0.43
CC(C)OC1CC(NC[C@H](O)Cc2ccccc2)C1 (some centres undefined) | -6% | 1.22
O=S(=O)(c1ccccc1F)N1c2ccncc2N2CCC1C2 (centres undefined) | 1% | -0.14
CN1CC2(CCN(S(=O)(=O)c3ccccc3Cl)CC2)OCC1=O | -7% | 1.39
Cc1nn(C)c(C)c1-c1cc(C(=O)N[C@@H]2[C@@H]3CCO[C@@H]3[C@H]2N(C)C)n(C)n1 | 2% | -0.35
O=C(NCCC1CCCO1)C1CC1c1ccco1 (centres undefined) | 1% | -0.09
O=C(CS(=O)(=O)C1CCCC1)N1CCC2CCCCC21 (centres undefined) | -15% | 2.51
CC(=O)NCCCc1nc(-c2c[nH]c3ccccc23)n[nH]1 | -2% | 0.38
O=S(=O)(Nc1nc2ccccc2nc1Nc1ccccc1N1CCCCC1)c1ccc(Cl)cc1 | -9% | 1.45
COc1cccc(OCC2c3ccsc3CCN2C(=O)CN(CC(O)COC(C)C)CC2CC2)c1 (centres undefined) | 7% | -0.78
CCCN(CC)c1ccc(C(=O)OCc2ccccn2)cn1 | -4% | 0.65
CC(=O)N1CC(NC(=O)COC(C)(C)C)C1 | -4% | 0.64

Compound | % Inhibition | Z score
COc1ccc(NC(=O)NC2CCCCCCC2)cc1 | 22% | -3.12
C[C@@H](c1ccccn1)N(C(=O)Nc1ccc(Cl)c(Cl)c1)C1CCCCC1 | -14% | 2.33
Cc1c(C(=O)NCc2cccnc2)oc2ccc3c(c12)[C@@H](O)CC1(CCCCC1)O3 | -3% | 0.58
C[C@H]1CN(C(=O)CS(=O)(=O)Cc2ccc(Br)cc2)CCN1 | -1% | 0.22
COc1cccc(Cl)c1CN[C@@H](C)C1CCS(=O)(=O)CC1 | -12% | 1.49
CC1(C)COC[C@H](CS(=O)(=O)NCCNc2ccccc2)O1 | 7% | -1.25
CCC1(CNC(=O)[C@H]2CCCOC2)CC1 | 10% | -1.17
Cc1ccc(NC(=O)N2CCCC3CN(C)CCC32)cc1Cl (centres undefined) | -3% | 0.26
C[C@@H]1Oc2ccc(NC(=O)CCN3C(=O)CCC3=O)cc2NC1=O | 0% | -0.05
CCn1nncc1CNc1ncc(C)cc1Br | 5% | -0.44
O=S(=O)(CCNc1ncncn1)N1CCCC1 | 3% | -0.47
Cc1nc(C(=O)Nc2ccc3c(c2)OCCN3C)c(C)o1 | -3% | 0.58
OCCn1nc(COc2ccc(F)cc2)nc1[C@@H]1CC=CCC1 | -4% | 0.54
Cc1ccc(CN2CCC3(CC2)COC(=O)O3)c(F)c1F | 0% | 0.04
Cn1cc([C@H]2CCCN(C(=O)c3ccncc3F)C2)cn1 | -6% | 1.2
CC(=O)NC[C@H]1CN(c2ccnc3ccsc23)CCO1 | 0% | -0.03
CCN(C)c1ccccc1NC(=O)CC(F)(F)F | -9% | 0.88
CC(C)c1cn2c(C(=O)ON(C)C)cccc2[n+]1C | -13% | 1.55
Cc1cccc(CN2CCC[C@@]3(CCN(c4nc(-c5ccccc5)no4)C3)C2)c1 | -4% | 0.57
O=C1CCCN1CCN(CCc1c[nH]c2ccccc12)Cc1cccnc1 | 0% | -0.05
COCCCn1c(C)c(C)c(S(=O)(=O)c2ccc(C)cc2)c1N | -4% | 0.38
CC[C@@](C)(CC(=O)O)NC(=O)c1ccc(F)c(C)c1 | 4% | -0.44

Compound | % Inhibition | Z score
COC1CC2CCC(C1)N2S(=O)(=O)c1cccc(C(C)=O)c1 (centres undefined) | -17% | 2.23
Cc1c(C(=O)NCc2ccc(F)cc2)cnn1[C@H]1CCS(=O)(=O)C1 | 1% | -0.09
CCCS(=O)(=O)N1CCCN(C2=NS(=O)(=O)C(c3ccccc3)=C2C)CC1 | -15% | 1.69
C[C@@H](c1ccccn1)N(C)Cc1ccc2c(c1)OCO2 | -5% | 0.64
c1ccc2cc(-c3nc([C@H]4CCOC4)no3)ccc2c1 | -11% | 2.02
CC1(C)[C@@H](N(O)C(=O)Nc2cccc(C(F)(F)F)c2)N(c2cccc(C(F)(F)F)c2)C(=O)N1CCC1=CCCCC1 | 1% | -0.07
CC(C)C(CS(=O)(=O)N1CCC[C@H](n2ccnn2)CC1)C(C)C | -5% | 1.16
Cc1nonc1C(=O)N1C[C@H](c2cnn(C)c2)C(C)(C)C1 | -8% | 1.18
O=C(Nc1cccc(Cl)c1)OCC1OCCO1 | -16% | 1.87
COc1cc(Cl)c(CN2CCCNC(=O)C2)c(OC)c1 | -6% | 0.58
CCC(=O)N1CCN(C(=O)c2ncccc2O)[C@H]2CS(=O)(=O)C[C@H]21 | -1% | 0.17
CC1CC(=O)NC2(/C=C/c3ccc(N(C)C)cc3)N1c1ccccc1C2(C)C (centres undefined) | -7% | 0.84
OC[C@]1(F)CCN(c2nnc(-c3ccccn3)s2)C1 | 4% | -0.82
FC(F)(F)Cn1nnnc1N1CC2(CCOCC2)[C@@H]2CCC[C@@H]21 | -5% | 0.71
CCN1CCN(C(=O)COCc2cc(C)no2)[C@@H](C)C1 | -15% | 2.19
CN1C(=O)[C@H](OC(=O)COc2ccccc2)N(c2cccc(Cl)c2)C1=O | 36% | -4.61
Cc1c(C)[n+](O)c([C@H](CC(=O)O)c2ccc(OC(F)(F)F)cc2)n1C | -13% | 1.6
CCn1c(-c2cc(NC(=O)Cc3ccc(OC)cc3Cl)[nH]n2)cc2ccccc21 | -10% | 1.17
C=CCNC(=O)c1nnc(N2CCC(C)CC2)c2ccccc12 | 2% | -0.27
Cc1c2c(nn1-c1nc(-c3cccc(O)c3)cs1)CCCC2 | -29% | 3.38
O=C(COc1ccc2ccccc2c1Br)N1CCN(C(=O)[C@@H]2CCCO2)CC1 | -1% | 0.12
O=C(CNS(=O)(=O)c1ccccc1)NCC(=O)OCc1ccccc1F | -13% | 1.76

Compound | % Inhibition | Z score
COc1cc2c(cc1OC)CN(C(=O)c1cccnc1N(C)C)CC2 | -3% | 0.52
O=C(COC(c1ccccc1)c1ccccc1)Nc1nccs1 | -9% | 1.34
O=C1NCCCC[C@@H]1Nc1ncc(C(F)(F)F)cc1Cl | -9% | 1.36
Cc1scc(C(=O)NC[C@H]2CCCO2)c1C | -8% | 0.72
O=C(C1=CCCC1)N1CCC[C@H](Nc2cccc(F)c2)C1 | 9% | -1.25
FC1(F)CC[C@H](c2nc(-c3cnc4ccccn34)no2)C1 | -10% | 1.27
COCCCn1cc(-c2cccc(OC)n2)nn1 | -11% | 2.09
CN1CCCc2cc(C(=O)NCc3ccccc3)sc21 | -6% | 1.08
COc1ccc(-c2cc3cc(OC)c(OC)cc3c(-c3ccc(OC)cc3)n2)cc1 | -2% | 0.4
Cc1ccc([C@@H]2CN(Cc3nnnn3C3CC3)CCO2)c(C)c1 | 2% | -0.3
O=C(c1ccc(C(F)(F)F)cc1N1CCCC1)N1CC2COCC(C1)O2 | -13% | 1.68
C[C@@H](Cn1cncn1)NC(=O)c1ccc(Oc2ccccc2)o1 | -2% | 0.38
Cc1ccc(-n2c(C)c(CNCCc3ccccc3Cl)c(C(=O)O)c2C)cc1 | -7% | 1.33
Cc1cc(-c2ccccc2N(C)C)nc(N2CCOCC2)n1 | 6% | -1.12
Cc1cc(C)c(C(=O)NCCC2CCOC(C)C2)c(C)c1 (centres undefined) | 0% | 0.06
Cc1cc(-c2noc(C3C[C@H]4C[C@@H](N)[C@H]4C3)n2)ccc1-n1cccn1 (some centres undefined) | 5% | -0.84
CCc1cc(C(=O)N2CCN(CC)CC2)on1 | -14% | 2.12
Cc1cnc(NCCN2C(=O)CCC2=O)nc1C | -10% | 1.24
CC(C)CCN(C(=O)c1ccc2nccnc2n1)C1CCCC1 | 0% | 0.05
COCC1CN(C(=O)NC2CC2c2ccccc2C(F)(F)F)CC(C)O1 (centres undefined) | -1% | 0.24
C[C@H]1CN(c2ncnc3[nH]ncc23)CC2(CCC2)O1 | -10% | 1.32
